Measured values reported in paper PMC11002309, “Cancer-associated polybromo-1 bromodomain 4 missense variants variably impact bromodomain ligand binding and cell growth suppression” (The Journal of Biological Chemistry, 2024).

Tests used:
Assay in all cases: AlphaScreen or HTRF; initial screen: His6-PBRM1-BD4 protein at 0.1, 1 and 10 μM with 50 nM biotinylated H3K14ac(1–20) peptide; streptavidin donor and nickel-chelate acceptor beads; 1× AlphaLISA Epigenetics buffer, 0.05% Tween 20, 2 μM TCEP; room temperature; n = 3
Conditions in all cases: both partners purified
[1] = molecular target: T1, PBRM1-BD4 WT (fourth bromodomain of polybromo-1, aa 496–637) (human, UniProt Q86U86-5 496-637)
T1 construct: polybromo-1 (PBRM1), fourth bromodomain (BD4) construct, aa 496-637; Construct in the pNIC-CTHF vector; source: E. coli BL21(DE3), purified (Ni-NTA, gel filtration)

[2] = molecular target: T2, PBRM1-BD4 R576L (human, UniProt Q86U86-5 496-637, R576L)
T2 construct: polybromo-1 (PBRM1), fourth bromodomain (BD4) construct, aa 496-637, cancer-associated missense variant; source: E. coli BL21(DE3), purified (Ni-NTA, gel filtration)

[3] = molecular target: T3, PBRM1-BD4 M586I (human, UniProt Q86U86-5 496-637, M586I)
T3 construct: polybromo-1 (PBRM1), fourth bromodomain (BD4) construct, aa 496-637, cancer-associated missense variant; source: E. coli BL21(DE3), purified (Ni-NTA, gel filtration)

[4] = molecular target: T4, PBRM1-BD4 N528I (human, UniProt Q86U86-5 496-637, N528I)
T4 construct: polybromo-1 (PBRM1), fourth bromodomain (BD4) construct, aa 496-637, cancer-associated missense variant; source: E. coli BL21(DE3), purified (Ni-NTA, gel filtration)

[5] = molecular target: T5, PBRM1-BD4 P556S (human, UniProt Q86U86-5 496-637, P556S)
T5 construct: polybromo-1 (PBRM1), fourth bromodomain (BD4) construct, aa 496-637, cancer-associated missense variant; source: E. coli BL21(DE3), purified (Ni-NTA, gel filtration)

binding result [1]: binds
binding result [2]: binds
binding result [3]: binds
binding result [4]: binds
binding result [5]: binds
B1: biotinylated histone H3K14ac(1–20) peptide (peptide)
peptide: not shown
modifications: acetyl-lysine at K14; biotin on the added C-terminal lysine; C-terminal amide (CONH2)
notes: histone H3, residues 1-20; added C-terminal lysine that carries the biotin; also called H3K14ac peptide; Kac peptide; source: synthetic peptide, bought: Peptide 2.0
